We go through 167 variants from the RNAGym collection of RNA variant scans (doi:10.7554/elife.90254).

To fix the notation:
B1: LINE1-mini (parent)
chain: GGCAGAGCUCAACACAGCGUGGCAAAGUGGCUGUGGCUAGACUGCC

Read counts are not given, so values of variants with three or more changes are uncertain.

Variants of B1 are the subject of the series. The experiment in a line: self-cleavage, relative activity (ratio to wild type); higher = more cleavage; in vitro, sequencing; the parent is a self-cleaving ribozyme.
Consider A14U C18A C46A, for which the self-cleavage amounted to 0.06.

Turning to A14U C18A C45U, the self-cleavage is 0.08.

Regarding C15A A26U G30U C37A, the self-cleavage turned out to be 0.02.

On to A14G U20A C31G U38A G40C, for which the self-cleavage was found to be 0.02.

For the variant A14U G40A C42A, the self-cleavage turned out to be 0.03.

As to A14U G27A U43A, the self-cleavage was 0.04.

For C15A C18U A26U, the self-cleavage worked out at 0.04.

As for A14G C23G A41U, the self-cleavage turned out to be 0.13.

For A14G C23G G33A, the self-cleavage turned out to be 0.07.

Turning to C15A G17A G22C U34C, the self-cleavage came to 0.06.

On to C15A C31U C42U, for which the self-cleavage was found to be 0.04.

With C15A A16G G29U, the self-cleavage was 0.01.

Take A14U U20A G40C A41G: the self-cleavage was found to be 0.01.

Consider C15A A16C C18G C46G, for which the self-cleavage was 0.01.

As for A14U G21U A41G, the self-cleavage is 0.06.

As for A14U C15G C18U U34A G44A, the self-cleavage amounted to 0.13.

A14U G22A C42U G44A: the self-cleavage is 0.28.

Consider C15A C23G U32C, for which the self-cleavage was found to be 0.07.

Turning to A14U G19U G44C, the self-cleavage is 0.22.

As for A14G G29A G30U, the self-cleavage came out at 0.18.

Take A14U C15U U20G: the self-cleavage was 0.16.

For A14U C37U A39G G40U, the self-cleavage amounted to 0.

As for A14U U20A G27U, the self-cleavage was 1.12.

Consider A14G G17U C18A G19A U20C A26C A39C, for which the self-cleavage was 0.01.

Regarding A14G G17U A25U U28G, the self-cleavage was 0.03.

For C15A C18G C46A, the self-cleavage was determined as 0.01.

For the variant A14U G17U G27U U32C A41U, the self-cleavage turned out to be 0.1.

Turning to A14U C15G G21U G29C, the self-cleavage came out at 0.13.

Turning to C15A C37U C45G, the self-cleavage was found to be 0.05.

As for A14U G36A U43A, the self-cleavage is 0.04.

On to A14G G29A G36U, for which the self-cleavage was 0.04.

C15A A25G A26U U34G G44U C45G: the self-cleavage worked out at 0.

Turning to C15A C23A U34G, the self-cleavage is 0.03.

Regarding C15A C18G A26U C37A U38A A41U U43A C46A, the self-cleavage amounted to 0.

Take C15A C23G A24C G33A: the self-cleavage amounted to 0.02.

Consider A14G G29A C31A A39C, for which the self-cleavage turned out to be 0.08.

For the variant A14G U32G G35C U43A, the self-cleavage was 0.03.

With A14U A16C G27C G35U C46G, the self-cleavage was found to be 0.07.

On to A14G G30C U34C, for which the self-cleavage is 0.46.

For A14U G19C G29C, the self-cleavage worked out at 0.13.

As to A14G G19C G30U U43C, the self-cleavage was 0.12.

As to C15A A24U G29A C31U U43A, the self-cleavage is 0.04.

A14G G22U G29C C31U C42A C46A: the self-cleavage was found to be 0.03.

For the variant A14U G22U C31A G35C, the self-cleavage was 0.11.

For A14U G17A C46U, the self-cleavage was 0.16.

In the case of A14U G19C U20A G29C C37U A41C, the self-cleavage was 0.02.

A14U A24C G30A: the self-cleavage is 0.04.

As to A14U C23A C31A, the self-cleavage was determined as 0.08.

C15A A16C G44U: the self-cleavage is 0.14.

As to A14U A24U A26C, the self-cleavage amounted to 0.27.

Take A14G U20A G22A U38C C46U: the self-cleavage was 0.04.

For the variant C15A A26G G29U G30A C37A C42G G44A, the self-cleavage amounted to 0.02.

Consider A14U G33C A41C, for which the self-cleavage was 0.02.

As to A14G G36U A41G, the self-cleavage is 0.07.

Turning to A14G G33U C37U A41G C46G, the self-cleavage came out at 0.03.

Take A14U U20A A24G G27A C46A: the self-cleavage is 0.35.

Take C15A A25C A26U G33C G35C: the self-cleavage was found to be 0.04.

Consider A14U G30A G36A C37A, for which the self-cleavage was determined as 0.1.

Consider C15A C23U G35U C42G, for which the self-cleavage stood at 0.03.

Take A14G G29U G44U C45A: the self-cleavage is 0.02.

As to A14G C23A G35U, the self-cleavage stood at 0.06.

A14U G21U G29C U32G: the self-cleavage stood at 0.07.

On to A14G U20C A24U G35U C37U, for which the self-cleavage worked out at 0.02.

Regarding C15A C23U G33U, the self-cleavage is 0.68.

On to C15A C23U G33C, for which the self-cleavage worked out at 0.17.

Regarding A14G G36A G44A, the self-cleavage is 0.1.

As for A14G G30A G44A, the self-cleavage was determined as 0.02.

Turning to A14G G19U G35U, the self-cleavage stood at 0.37.

Regarding C15A C31A C46A, the self-cleavage is 0.07.

For the variant C15A G17A G19C U34G G36U C37A U38A, the self-cleavage was 0.02.

As for C15A A16U A26C G35C, the self-cleavage is 0.03.

Turning to A14U U32A U38C, the self-cleavage worked out at 0.02.

As for A14G C23U G40C C42G, the self-cleavage was found to be 0.09.

As to A14U A26G G35C, the self-cleavage came out at 0.05.

Consider A14U G36A A39U, for which the self-cleavage worked out at 0.09.

On to A14U C42U C45A, for which the self-cleavage was determined as 0.

For A14G U20G G40U U43A, the self-cleavage was 0.09.

Turning to A14U U32C U38A, the self-cleavage was 0.06.

A14G C23U U43C: the self-cleavage came to 0.18.

Regarding A14G G17U G19C U20A G22C G40U, the self-cleavage was 0.1.

As to A14U A25G G40C, the self-cleavage came out at 0.03.

As for C15A A24C G29U U38G U43C, the self-cleavage came out at 0.01.

For the variant A14U G29A A39G, the self-cleavage amounted to 0.04.

With A14G G33C U34A, the self-cleavage amounted to 0.03.

On to A14U U34G U38C, for which the self-cleavage amounted to 0.45.

In the case of A14G C18U G29C, the self-cleavage amounted to 0.11.

Regarding A14G G19C G27C G30C C42G, the self-cleavage was 0.05.

As for A14U C18A G22U, the self-cleavage came out at 0.13.

For A14U A25U U34C, the self-cleavage came to 0.06.

Turning to A14U U20A C23A U38A G44C, the self-cleavage was 0.11.

A14G G21C G27C: the self-cleavage came out at 0.67.

Regarding A14G G19U G40U C46A, the self-cleavage was determined as 0.04.

Take C15A G17C G35U C45G: the self-cleavage came out at 0.05.

With A14U C15U C45U, the self-cleavage was determined as 0.

In the case of A14G G27U U28G, the self-cleavage worked out at 0.35.

With A14U U32A G35A C42U, the self-cleavage turned out to be 0.41.

For A14G U32C G40U, the self-cleavage is 0.01.

For the variant C15A A25G U28G, the self-cleavage came to 0.03.

In the case of A14U G19U G22C, the self-cleavage was 0.18.

Take A14U U20A A24C: the self-cleavage is 0.03.

As to A14G G22A G36U, the self-cleavage was found to be 0.18.

For A14U C15U U32C U38G C46U, the self-cleavage was 0.02.

Turning to A14U A39C G44U, the self-cleavage was 0.07.

As to A14G G27A C37G G44C, the self-cleavage worked out at 0.05.

With C15A A24C C37G U38A, the self-cleavage came to 0.02.

Regarding A14G G21U G40A, the self-cleavage came to 0.04.

As to C15A A25U C31G, the self-cleavage came out at 0.02.

With A14U C23G U34A C42A C46A, the self-cleavage is 0.15.

In the case of A14U G30A C31A, the self-cleavage came out at 0.01.

With C15A C23A A24C, the self-cleavage came out at 0.04.

Regarding A14G G33U G35U, the self-cleavage was 0.1.

Regarding A14G U32G C45A, the self-cleavage is 0.02.

Consider C15A A16G C23A C42G, for which the self-cleavage stood at 0.1.

On to A14U G22U C37A U38G, for which the self-cleavage amounted to 0.01.

For the variant A14G G19U G21U, the self-cleavage stood at 0.47.

In the case of C15A A24C U34G, the self-cleavage came out at 0.

As for C15A A25U U38C, the self-cleavage is 0.04.

On to A14U C15A G17A G22C, for which the self-cleavage is 0.07.

As for A14U G17C G22U, the self-cleavage stood at 0.02.

As for A14U A16U C18G G22A G30C G36C C45U, the self-cleavage amounted to 0.

In the case of A14U G21C G27C, the self-cleavage is 0.1.

For the variant A14U A25C G33C G35C C42U, the self-cleavage came out at 0.

Turning to C15A G17C C18G G33C, the self-cleavage is 0.01.

Consider A14G G40C C46G, for which the self-cleavage was found to be 0.01.

With A14G C18U U28G, the self-cleavage came to 0.04.

With A14U G29C C37A, the self-cleavage was found to be 0.01.

On to A14G G17A U28C G35A, for which the self-cleavage was found to be 0.08.

Turning to C15A A26U C46G, the self-cleavage was found to be 0.07.

On to C15A A24U C42U, for which the self-cleavage came to 0.01.

Regarding A14U G21C U32C, the self-cleavage was 0.13.

Take C15A A41U G44A: the self-cleavage was 0.04.

Consider A14U G29A G40A C42U C46G, for which the self-cleavage came to 0.03.

C15A C23U G30A: the self-cleavage amounted to 0.12.

Consider C15A C23U U38A G40A C45U, for which the self-cleavage stood at 0.13.

With C15A C31U C37A, the self-cleavage was 0.1.

With C15A A16C A24U G29C, the self-cleavage worked out at 0.04.

Take A14U C15A U34A: the self-cleavage came to 0.03.

Turning to C15A A16U G19U, the self-cleavage came out at 0.04.

Take A14G G17U U34A: the self-cleavage turned out to be 0.2.

As for A14G U20C C23A G30A C37U, the self-cleavage amounted to 0.01.

As to A14G C37G C42G, the self-cleavage was 0.01.

For the variant C15A G17C C18U C23A, the self-cleavage was 0.05.

For A14U G17A G29A, the self-cleavage is 0.07.

A14G G33C C42A: the self-cleavage came to 0.03.

On to A14U A16U U20C C46A, for which the self-cleavage stood at 0.15.

As for A14U G21A U43A, the self-cleavage was determined as 0.03.

For the variant A14G G17U C18G, the self-cleavage turned out to be 0.03.

In the case of A14U C31U C42A, the self-cleavage is 0.01.

As for A14U G21U C23G G30A C37U, the self-cleavage is 0.03.

With A14G G22C C46U, the self-cleavage stood at 0.04.

In the case of A14U U20C A24U G35U A41C, the self-cleavage worked out at 0.

Take C15A C18G G40U: the self-cleavage turned out to be 0.04.

For A14G G21U A26G U43G, the self-cleavage is 0.

Take C15A A25C G29A: the self-cleavage amounted to 0.03.

Take A14G G19U G21U C23U C31G A39G: the self-cleavage turned out to be 0.01.

Consider A14U G27U G33U, for which the self-cleavage stood at 0.07.

For A14U G21C A25G G29U, the self-cleavage was 0.04.

A14G G33U A39C: the self-cleavage was determined as 0.05.

With C15A A25C C46G, the self-cleavage was determined as 0.02.

Regarding C15A G17C U34A, the self-cleavage was 0.06.

With A14U A26G G30A, the self-cleavage was 0.03.

A14U C15G C23U G27U C31A: the self-cleavage is 0.02.

In the case of A14G U34C C45G, the self-cleavage worked out at 0.1.

On to C15A A16G A39U C42G, for which the self-cleavage worked out at 0.

With A14G G36A C46G, the self-cleavage came out at 0.02.

Turning to C15A C23U C31A, the self-cleavage was 0.02.

C15A A24C G44U: the self-cleavage worked out at 0.02.
